In PubChem BioAssay AID1345083 (National Center for Advancing Translational Sciences (NCATS), 2018):
About 6,200 (6.6%) of roughly 94,000 compounds were called active. Inconclusive results, whose numbers are uncertain, are shown with a selection of clear calls. Calls come from the whole dose curve; as a rule, active = well fitted inhibition curve with a large enough effect; inconclusive = small, poorly fitted or top-dose-only effect; inactive = flat fitted curve, though single readings scatter. Where the call is inconclusive, the potency comes from a doubtful curve fit.

assay: Cytotoxic Profiling in HEK 293 Cell Line of Diverse Libraries Using Quantitative High-Throughput Screening; details: HEK 293 viability, ATP luminescence (CellTiter-Glo), 48-72 h; activity change, negative = cytotoxicity: at 115 µM (top of the series) unless noted; series mostly up to 115 µM; note: nearly all actives have a fitted effect of over 60% in size
In short: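 CellTiter-Glo luminescence (cellular ATP) was read after 48 or 72 hr of compound exposure at 37 degree Celsius. Cells were HEK 293 plated at 250 cells/well.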
% is set by controls: 0 for no effect and ±100 for the full control effect; potency is the fitted concentration of half-maximal effect; tags give direction and shape of the fitted curve.

Which Potency does the source give for `COc1ccc(-n2c(=O)c(C(=O)NCc3cccc(Cl)c3)nc3cccnc32)cc1` here?
Its Potency is inconclusive: 79.4 µM [inhibitor, single point].

Which Potency does the source give for `COc1ccc(-c2ccc3ncn(C4CC4)c(=O)c3n2)cc1OC` here?
Its Potency is inconclusive: 112 µM [inhibitor, partial curve].

For `O=C(NCC(F)(F)F)C1CCCN1C(=O)c1cccc(-c2ccccn2)c1` (stereo not drawn), which “activity change, negative = cytotoxicity” value is on record?
Its value is inactive: 1.43%.

Which Potency does the source give for `Cc1ccc(NC(=O)c2ccc3c(c2)N(S(C)(=O)=O)CC3)c(C)c1` here?
The Potency was inconclusive: 89.1 µM [inhibitor, partial curve, poor fit].

For `CC(NC(=O)c1cc(-c2ccncc2)cn1C)c1ccc(F)cc1` (stereo not drawn), which Potency is on record?
Its Potency is active: 79.4 µM.

Which Potency does the source give for `COc1ccc(C(=O)NCc2nnc3ccc(-c4ccc(C)cc4)nn23)cc1F` here?
The Potency was inconclusive: 39.8 µM [inhibitor, full curve].

For `CS(=O)(=O)N(C1CC1)C1CCOC2(CCN(C(=O)CCC3CCCC3)CC2)C1` (stereo not drawn), which Potency is on record?
Its Potency is inconclusive: 79.4 µM [inhibitor, partial curve].

For `O=C(NCc1nnc2ccc(-c3ccc(Cl)cc3)nn12)c1cccc(Br)c1`, which Potency is on record?
Its Potency is inconclusive: 39.8 µM [inhibitor, partial curve, poor fit].

Which Potency does the source give for `O=C(c1ccccc1F)N1CCCC(c2nn(-c3ccccc3)c(=O)[nH]2)C1` (stereo not drawn) here?
Its Potency is inconclusive: 89.1 µM [inhibitor, single point].

For `O=C(NCCCn1ccnc1)c1cnc2c(c1)N(C(=O)CCc1ccccc1)CCC2`, which Potency is on record?
The Potency was inconclusive: 112 µM [inhibitor, single point].

Which Potency does the source give for `CC(C)(Oc1nn(CC2CCOCC2)c2ccccc12)C(=O)NCc1ccccc1` here?
The Potency was inconclusive: 100 µM [inhibitor, partial curve, poor fit].

Which Potency does the source give for `O=C(NCCc1ccc(Cl)cc1)C1CCN(C(=O)c2ccc(-c3cccs3)cc2)CC1` here?
The Potency was active: 44.7 µM.

For `CCOC(=O)[C@H]1CN(C(=O)c2ccc3c(c2)OCCCO3)[C@]2(C)C(=O)N(CCOC)c3ccccc3[C@H]12`, which Potency is on record?
Its Potency is inconclusive: 50.1 µM [inhibitor, partial curve, poor fit].

Which Potency does the source give for `O=C(Nc1ccc(C2(C(=O)N3CCN(c4ccccn4)CC3)CCC2)cc1)C1CC1` here?
The Potency was inconclusive: 89.1 µM [inhibitor, single point].

With `C=CCN(CC=C)Cc1nnc2cc(-c3nc(-c4ccccc4)no3)ccn12` as the molecule, how does the Potency read?
Its Potency is inconclusive: 89.1 µM [inhibitor, single point].

Which Potency does the source give for `CN1C(=O)COC[C@@H]1[C@H](O)c1ccc(NC(=O)c2ccc(C(F)(F)F)cc2)cc1` here?
Its Potency is inconclusive: 50.1 µM [inhibitor, partial curve, poor fit].

Which Potency does the source give for `COc1ccc(CN2CCN(Cc3cc4ccccc4[nH]3)CC2CCO)c(C)c1C` (stereo not drawn) here?
Its Potency is inconclusive: 20 µM [inhibitor, full curve, poor fit].

For `Cc1ccc(NC(=O)Cn2nc3c(cc2=O)CCCCC3)c(Cl)c1`, which Potency is on record?
The Potency was inconclusive: 50.1 µM [inhibitor, partial curve, poor fit].

With `Cc1noc2c(NCCN(C)C)cc(-c3ccccc3)nc12` as the molecule, how does the Potency read?
The Potency was inconclusive: 112 µM [inhibitor, partial curve].

For `CC(C)CNC(=O)c1coc(COc2ccc3c(c2)C(c2ccccc2)N(C(=O)C(C)C)CC3)n1` (stereo not drawn), which Potency is on record?
The Potency was inconclusive: 35.5 µM [inhibitor, partial curve, poor fit].

Which Potency does the source give for `CSc1ccccc1C(=O)N1CCOC(Cc2cccc(F)c2)C1` (stereo not drawn) here?
Its Potency is inconclusive: 89.1 µM [inhibitor, single point].

For `O=C1CCCCCN1CCc1nc(C2CCOC2)no1` (stereo not drawn), which “activity change, negative = cytotoxicity” value is on record?
The value was inactive: -6.84%.

Which Potency does the source give for `O=C1CN([S+](=O)([O-])c2ccc(F)cc2)CC(O)CN1CCOc1ccccc1` (stereo not drawn) here?
The Potency was inconclusive: 79.4 µM [inhibitor, partial curve, poor fit].

With `Cc1ccc(OCC(=O)N2CCC(c3noc(-c4ccccc4)n3)C2)cc1` (stereo not drawn) as the molecule, how does the Potency read?
The Potency was inconclusive: 89.1 µM [inhibitor, single point].

Which Potency does the source give for `Cc1ccccc1NC(=O)N1CCC2(CC1)C(=O)N(c1cccc(F)c1)C2c1ccccc1` (stereo not drawn) here?
Its Potency is inconclusive: 44.7 µM [inhibitor, partial curve].

With `COc1ccc(C(=O)N2CCN(c3cc(-c4ccc(Cl)cc4)[nH]n3)CC2)cc1OC` as the molecule, how does the Potency read?
The Potency was active: 35.5 µM.

Which “activity change, negative = cytotoxicity” value does the source give for `CN1CCC(NC[C@H]2O[C@@H](CO)[C@@H](O)[C@@H]2N(C)Cc2ccccc2)CC1` here?
The value was inactive: 4.76%.

With `Cc1nn(-c2ccccc2)c2c1C(C1CC1)N(C1CCN(Cc3ccc(C(F)(F)F)cc3)CC1)C2=O` (stereo not drawn) as the molecule, how does the “outcome” value read?
The value was “inactive”.

Which Potency does the source give for `CCc1ccc(C(=O)N2CCC(Cc3nc(-c4cccc(OC)c4)no3)CC2)cc1` here?
Its Potency is active: 22.4 µM.

Which “activity change, negative = cytotoxicity” value does the source give for `CNc1nc(NCCC2CN(c3cnn(C)c(=O)c3)CCO2)ncc1F` (stereo not drawn) here?
Its value is inactive: 3.74%.

Which Potency does the source give for `Cc1noc2c(NC3CCN(C)CC3)cc(-c3ccc(F)cc3)nc12` here?
Its Potency is active: 63.1 µM.

With `COc1ccc(C(=O)NC2CCN(c3cc(-c4ccc(F)cc4)[nH]n3)C2)c(OC)c1` (stereo not drawn) as the molecule, how does the Potency read?
Its Potency is inconclusive: 50.1 µM [inhibitor, partial curve, poor fit].

Which Potency does the source give for `CCNC(=O)c1cc2n(n1)CC(c1ccc(Br)cc1)OC2` (stereo not drawn) here?
Its Potency is inconclusive: 56.2 µM [inhibitor, partial curve, poor fit].

With `O=C1NC2(CCN(S(=O)(=O)c3cccs3)CC2)Oc2ccccc21` as the molecule, how does the Potency read?
Its Potency is inconclusive: 50.1 µM [inhibitor, partial curve].

With `COc1ccc(CNC(=O)C[C@@H]2c3nc(NC(=O)c4cccs4)sc3C[C@@H]3[C@](C)(CO)[C@H](O)CC[C@]32C)cc1` as the molecule, how does the Potency read?
Its Potency is inconclusive: 31.6 µM [inhibitor, partial curve, poor fit].

For `Cc1ccc([S+](=O)([O-])N2CCCC(C(=O)N3CCCC(c4nc5ccncc5[nH]4)C3)C2)cc1` (stereo not drawn), which Potency is on record?
The Potency was inconclusive: 50.1 µM [inhibitor, partial curve, poor fit].

Which Potency does the source give for `COc1ccc(C(=O)N2CCC3(CC2)c2[nH]c4ccccc4c2CCN3C)cn1` here?
The Potency was inconclusive: 79.4 µM [inhibitor, partial curve, poor fit].

Which Potency does the source give for `COc1ccc(NC(=O)N2Cc3[nH]cnc3C[C@H]2c2nc(-c3ccc4ccccc4c3)no2)cc1` here?
The Potency was inconclusive: 100 µM [inhibitor, single point].
